The record followed here is PubChem BioAssay AID262 (DTP/NCI, 2004).

The subject of the assay is LX-1 lung xenograft sc, nude mice, tumor weight. Put plainly: NCI In Vivo Anticancer Drug Screen. Data for tumor model Human Lung LX-1 Xenograft (subcutaneous) in NU/NU Swiss (nude) mice. The note with it: endpoint: optimum tumor weight change, schedule: Q04DX003 (ip), higher = larger tumour. On the procedure: The antitumor activity of compounds was measured in mice bearing transplantable tumors. Survival or tumor size were measured and the results are expressed as the measurement made in the treated group (T) divided by the measurement made in the vehicle treated control group (C). The tumor model used in this assay is Human Lung LX-1 Xenograft (subcutaneous) in NU/NU Swiss (nude) mice
(In general: In xenograft studies the graft and the host belong to different species.)

Setting [1] is: dose: 200.0 mg/kg/injection, vehicle: suspension in saline.
The mark [2] stands for this setting: dose: 100.0 mg/kg/injection, vehicle: Klucel (hydroxypropylcellulose) (HPC).

Structures are written as SMILES. The source holds more than one record for some entries. Only these are listed. An entry can have further records. Values that stand side by side differ for a reason that is not stated; they may come from other doses, times, organisms or constructs than stated.

On to `CCc1ccccc1N1CCN(C(=O)c2cc(OC)c(OC)c(OC)c2)CC1`, for which the T/C is 70 % of control, 81 % of control, 153 % of control (dose: 12.5 mg/kg/injection, vehicle: Klucel (hydroxypropylcellulose) (HPC)) and 61 % of control, 77 % of control, 101 % of control (dose: 50.0 mg/kg/injection, vehicle: Klucel (hydroxypropylcellulose) (HPC)).

For `CC(CN1CC(=O)NC(=O)C1)N1CC(=O)NC(=O)C1` (stereo not given), the T/C under setting [1] is 63 % of control and 91 % of control.

For `N=c1ccn2c(n1)OC1C(O)C(CO)OC12` (stereo not given), under setting [1], the T/C is 53 % of control and 80 % of control.

Take `CCN(C)N=Nc1ccc(C(N)=O)cc1`: under setting [2], the T/C was -44 % of control and -18 % of control.

On to `Cc1c(N)nc([C@H](CC(N)=O)NC[C@H](N)C(N)=O)nc1C(=O)N[C@H](C(=O)N[C@H](C)[C@@H](O)[C@H](C)C(=O)N[C@H](C(=O)NCCc1nc(-c2nc(C(=O)NCCC[S+](C)C)cs2)cs1)[C@@H](C)O)C(OC1OC(CO)C(O)C(O)C1OC1OC(CO)C(O)C(OC(N)=O)C1O)c1cnc[nH]1` (stereo not given in full), for which the T/C is, setting by setting: (dose: 7.5 mg/kg/injection, vehicle: saline) 39 % of control and 67 % of control; (dose: 8.0 mg/kg/injection, vehicle: saline) 30 % of control, 66 % of control, 73 % of control; (dose: 15.0 mg/kg/injection, vehicle: saline) 35 % of control and 79 % of control; (dose: 32.0 mg/kg/injection, vehicle: saline) 29 % of control and 57 % of control.

With `CN(C)N=Nc1cn[nH]c1C(N)=O`, under setting [2], the T/C was -80 % of control, -72 % of control, 56 % of control.
